Screen size: about 350,000 compounds; about 31,000 (8.9%) were called active. This list was built around the results that the source calls inconclusive (neither active nor inactive); the mix of calls is not that of the screen. Calls follow the shape of the dose curve; as a rule, active = well fitted inhibition curve with a large enough effect; inconclusive = small, poorly fitted or top-dose-only effect; inactive = no such curve, though single readings can be large or run the other way. Where the call is inconclusive, the potency comes from a doubtful curve fit.
molecular target: Histone-lysine N-methyltransferase EHMT2 (Homo sapiens) (UniProt Q96KQ7); experiment: qHTS Assay for Inhibitors of Histone Lysine Methyltransferase G9a; conditions: G9a H3K9 monomethylation, AlphaScreen, 2 h; activity, negative = inhibition: at 59 µM (top of the series) unless noted; also: nearly all actives have a fitted effect of over 75% in size
Chain of UniProt Q96KQ7 (Q96KQ7 whole entry, looked up): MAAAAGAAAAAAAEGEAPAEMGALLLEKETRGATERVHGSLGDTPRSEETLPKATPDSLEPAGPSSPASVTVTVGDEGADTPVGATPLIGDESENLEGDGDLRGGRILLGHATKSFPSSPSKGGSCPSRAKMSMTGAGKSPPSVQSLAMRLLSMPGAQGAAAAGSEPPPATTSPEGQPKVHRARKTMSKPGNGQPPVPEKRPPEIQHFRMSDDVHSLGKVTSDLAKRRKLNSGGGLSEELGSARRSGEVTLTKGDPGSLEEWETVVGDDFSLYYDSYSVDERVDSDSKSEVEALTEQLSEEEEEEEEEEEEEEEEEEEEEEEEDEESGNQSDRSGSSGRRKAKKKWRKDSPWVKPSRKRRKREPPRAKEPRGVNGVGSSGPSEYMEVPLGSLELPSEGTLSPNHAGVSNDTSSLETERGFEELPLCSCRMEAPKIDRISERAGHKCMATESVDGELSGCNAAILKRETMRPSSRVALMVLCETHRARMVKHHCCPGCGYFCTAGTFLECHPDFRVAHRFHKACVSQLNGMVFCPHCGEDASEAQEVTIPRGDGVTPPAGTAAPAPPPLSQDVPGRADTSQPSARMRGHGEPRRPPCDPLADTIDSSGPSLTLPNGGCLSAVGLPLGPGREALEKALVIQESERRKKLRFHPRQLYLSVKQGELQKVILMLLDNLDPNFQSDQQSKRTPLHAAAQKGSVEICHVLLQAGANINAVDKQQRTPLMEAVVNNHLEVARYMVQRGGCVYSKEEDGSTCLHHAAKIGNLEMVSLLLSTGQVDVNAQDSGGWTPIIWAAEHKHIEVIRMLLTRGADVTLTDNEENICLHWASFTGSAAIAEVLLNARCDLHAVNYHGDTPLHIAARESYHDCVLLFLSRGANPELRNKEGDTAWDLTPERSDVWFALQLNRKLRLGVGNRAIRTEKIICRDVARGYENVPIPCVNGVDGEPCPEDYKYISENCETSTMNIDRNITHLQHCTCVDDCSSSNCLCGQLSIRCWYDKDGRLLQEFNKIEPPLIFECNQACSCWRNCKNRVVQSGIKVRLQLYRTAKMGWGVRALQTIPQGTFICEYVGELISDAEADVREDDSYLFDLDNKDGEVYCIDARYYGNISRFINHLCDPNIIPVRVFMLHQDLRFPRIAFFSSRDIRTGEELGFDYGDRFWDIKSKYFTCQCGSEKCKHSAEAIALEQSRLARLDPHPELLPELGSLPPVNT
Summary of the method: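 Quantitative HTS format: methyltransferase activity on a biotin-tagged H3K9 peptide is measured by AlphaScreen, using a rabbit anti-monomethyl-H3K9 antibody with streptavidin donor and anti-IgG acceptor beads. Final levels are 20 nM enzyme, 500 nM peptide, 20 uM SAM; 2 h RT.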
% is scaled to controls: 0 for no effect and ±100 for the full control effect; potency is read from the fitted curve at half-maximal effect; tags tell the direction and shape of the fitted curve.

Row | SMILES | Potency | activity, negative = inhibition
1 | CCCCCn1c(CN2CCCCC2CC)nc2c1c(=O)n(C)c(=O)n2C (stereo not given) | inconclusive: 44.7 µM [inhibitor, partial curve, poor fit] | –
2 | Cc1ccc(-c2nc(CS(=O)CC(=O)NCc3ccc4c(c3)OCO4)c(C)o2)cc1 (stereo not given) | inconclusive: 50.1 µM [inhibitor, partial curve, poor fit] | –
3 | COc1ccc(S(=O)(=O)C(C#N)c2nc3ccccc3nc2N2CCCC(C)C2)cc1 (stereo not given) | inconclusive: 3.55 µM [inhibitor, single point] | –
4 | CN(C)c1cccc(C(=O)NCc2ccc3c(c2)OCO3)c1 | inconclusive: 79.4 µM [inhibitor, single point] | –
5 | Cc1cc(-c2csc(NCc3ccccc3)n2)c(C)n1C | active: 8.91 µM | –
6 | CCCCC(C(=O)NC1CCCC1)N(Cc1ccco1)C(=O)Cn1nnc(-c2ccc(F)cc2)n1 (stereo not given) | inactive | –
7 | CC(C)CN(CC(C)C)c1ccc(/C=N/n2cnnc2)cc1[N+](=O)[O-] | inconclusive: 50.1 µM [inhibitor, partial curve, poor fit] | –
8 | CC(=O)c1cccc(NC(=O)CSc2nc3ccccc3nc2Cc2ccc(F)cc2)c1 | inactive | –
9 | CCC(C)C(NC(C)=O)C(=O)NC(=O)NC(c1ccccc1)c1ccccc1 (stereo not given) | inconclusive: 15.8 µM [inhibitor, partial curve, poor fit] | –
10 | CCCOc1cccc(C(=O)Nc2cc(-c3ccccc3)no2)c1 | inactive | –
11 | CC(C)OC(=O)CSc1nnc(-c2ccncc2)n1N | inactive | –
12 | CCOc1cc(/C=C\[N+](=O)[O-])ccc1OCC(=O)Nc1ccccc1C | inconclusive: 7.08 µM [inhibitor, partial curve] | –
13 | O=C(CN1CCOCC1)Nc1ncccn1 | inconclusive: 10 µM [inhibitor, partial curve, poor fit] | –
14 | COc1ccc(N2CC(NC(=O)c3ccc(S(=O)(=O)N4CCCCC4)cc3)CC2=O)cc1 (stereo not given) | inactive | –
15 | CCc1cccc(NC(=O)C(Cc2ccccc2)n2cccc2)c1 (stereo not given) | inactive | –
16 | COc1ccc(CN2C(=O)C(Cc3ccccc3)Nc3ncnc(N4CCc5ccccc5C4)c32)cc1 (stereo not given) | inconclusive: 3.16 µM [inhibitor, partial curve, poor fit] | –
17 | O=C(CCc1ccc(O)c(O)c1)NNC(=S)NCCc1ccccc1 | inactive | –
18 | COc1ccccc1C(=O)Nc1ccc2oc(-c3cccc4c(Br)cccc34)nc2c1 | inactive | –
19 | Cc1ccnc(NC(=O)CCC(=O)N(CC(=O)NC2CCCCC2)c2cccc(C)c2C)c1 | inconclusive: 2.51 µM [inhibitor, partial curve, poor fit] | –
20 | O=C(CSc1nc2ccccc2n1Cc1ccccc1)N/N=C/c1ccco1 | inactive | –
21 | COc1cccc(-n2c(SC3CCOC3=O)nc3ccccc3c2=O)c1 (stereo not given) | inconclusive: 39.8 µM [inhibitor, single point] | –
22 | O=C(CN1CCN(S(=O)(=O)c2ccccc2F)CC1)NC1CCCC1 | inconclusive: 89.1 µM [inhibitor, single point] | –
23 | CCc1cccc(C)c1NC(=O)Cn1nc(C)c2nn(-c3ccc(Cl)cc3)c(C)c2c1=O | inactive | –

Row | SMILES | Potency | activity, negative = inhibition
24 | O=C(NNC(=S)NCC1CCCO1)c1cccc(S(=O)(=O)N2CCOCC2)c1 (stereo not given) | active: 50.1 µM | –
25 | COc1ccc(-c2nc(C#N)c(N3CCCCCC3)o2)cc1OC | – | inconclusive: -96.6% [inhibitor]
26 | O=C1OC(c2ccccc2)/C(=C(/O)c2ccccc2)C1=O (stereo not given) | – | inactive: -8.02% [at 12.7 µM]
27 | Cn1c(-c2sc(=S)n(-c3ccccc3)c2N)nc2ccccc21 | – | inconclusive: -62.6% [inhibitor]
28 | COc1ccc(S(=O)(=O)c2c(O)c3ccc(C(=O)Nc4ccc(F)cc4)cc3[nH]c2=O)cc1 | inactive | –
29 | O=C1CCC(C(=O)N2CCCC(C(=O)c3ccc4ccccc4c3)C2)=NN1 (stereo not given) | inconclusive: 79.4 µM [inhibitor, single point] | –
30 | COc1ccc(C2c3cc(OC)c(OC)cc3CC(=O)N2c2ccc(C)c(F)c2)cc1 (stereo not given) | inconclusive: 11.2 µM [inhibitor, partial curve, poor fit] | –
31 | COc1ccccc1CNC(=O)CCn1c(=O)c2cccn2c2cccnc21 | inactive | –
32 | O=C(NC1CCCCCC1)c1cc(S(=O)(=O)N2CCOCC2)ccc1N1CCCCC1 | inconclusive: 28.2 µM [inhibitor, single point] | –
33 | COc1ccc(Br)cc1-c1nc(CCl)cs1 | – | inconclusive: -78.5% [inhibitor]
34 | Cc1cc(S(=O)(=O)N2CCCC(N3CCOCC3)C2)c(C)cc1Cl (stereo not given) | active: 44.7 µM | –
35 | O=C(CSc1nnc(Nc2ccccc2F)s1)c1cc2ccccc2o1 | active: 7.94 µM | –
36 | O=[N+]([O-])c1cc(-c2nc(-c3ccccc3)no2)ccc1NC1CCCCC1 | inconclusive: 14.1 µM [inhibitor, partial curve] | –
37 | CCOc1ccc(C(=O)Nc2cc(C)c3c(=O)oc4ccccc4c3n2)cc1 | inconclusive: 89.1 µM [inhibitor, single point] | –
38 | O=C1C(=O)N(Cc2ccccc2)C(c2cccc(O)c2)/C1=C(\O)c1ccc2c(c1)OCCO2 (stereo not given) | active: 44.7 µM | –
39 | COc1ccc(N(CN2C(=O)C3CC=CCC3C2=O)C(=O)c2ccco2)cc1 (stereo not given) | inconclusive: 44.7 µM [inhibitor, partial curve] | –
40 | Cc1c(O)c(CN(C)C)cc2c1oc(=O)c1ccccc12 | inconclusive: 89.1 µM [inhibitor, partial curve, poor fit] | –
41 | O=C(Nc1ccc([N+](=O)[O-])cc1)c1cncc(Br)c1 | inconclusive: 1.41 µM [inhibitor, partial curve, poor fit] | –
42 | C[C@@H]1C[C@H](OC(=O)c2ccccc2O)CC(C)(C)C1 | inactive | –
43 | COc1ccc(OCCN2CCN(C(=O)c3ccc(OC)c(OC)c3)CC2)cc1 | inactive | –
44 | CC(C)CC(OC(=O)c1ccco1)C(=O)NC1CCCCC1 (stereo not given) | inconclusive: 79.4 µM [inhibitor, single point] | –
45 | COc1ccc(NC(=O)c2ccc([N+](=O)[O-])o2)cc1 | inconclusive: 39.8 µM [inhibitor, partial curve, poor fit] | –

Reference: PubChem BioAssay AID504332 (National Center for Advancing Translational Sciences (NCATS), 2011)
